# The full ranking holds about 1,800 sequences; the median of “median log2 fold change of GCK-ALFA target abundance (FLAG IP / Myc IP barcode read proportion)” is about 0.14, and the lowest 2% start at about -0.84. The list shows a part of the results.
# T1: TRAF2, Q12933
# T1 chain: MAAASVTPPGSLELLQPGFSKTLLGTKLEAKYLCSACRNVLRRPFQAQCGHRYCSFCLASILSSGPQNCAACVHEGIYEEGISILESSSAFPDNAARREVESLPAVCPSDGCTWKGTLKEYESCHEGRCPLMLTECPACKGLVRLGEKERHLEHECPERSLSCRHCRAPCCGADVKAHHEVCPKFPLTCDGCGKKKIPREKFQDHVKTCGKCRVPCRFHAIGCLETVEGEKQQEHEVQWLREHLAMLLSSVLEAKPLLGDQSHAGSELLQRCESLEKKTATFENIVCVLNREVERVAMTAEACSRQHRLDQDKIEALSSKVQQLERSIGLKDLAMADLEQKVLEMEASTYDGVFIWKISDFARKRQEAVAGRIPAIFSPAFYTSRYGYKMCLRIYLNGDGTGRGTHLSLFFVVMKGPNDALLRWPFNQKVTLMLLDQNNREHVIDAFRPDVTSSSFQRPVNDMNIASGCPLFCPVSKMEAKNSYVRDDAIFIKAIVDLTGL
# B1: traf2_out_14_166_1273 (protein)
# chain: MSPEEIERIKEIADRQLELADEFVARARALLAEHRAELSPELLAELEALLAQAENRGLNTVAALLAQMAALARAAGHEALAAAFEALAREAEAEYRALLK
# B2: traf2_out_20_3_2244 (protein)
# chain: SALEAQLQAALDALAAQLDALAPALPADDAARLRALLDAARAAYQTDKTDALVALSELRRALLELAERARAAGDAATAAALEAAADLANRAMQLVYQLIE
# B3: traf2_out_12_187_952 (protein)
# chain: SVEEELLRAAEEAVRQAKRRLEKHKGEDPFVQELLEKLEELEELLKKHPEIAADLLVAASAIIRYMDLVEEGAPAEEIEAAREEAERLLEEALEEAEKLL
# B4: traf2_out_18_3_1895 (protein)
# chain: KEEELKKVSEEIDKIIDEVTARAREVLDRLAAEHPEVAAEVDALRADLEAGAGPFGILEELARLARRAGDEEEAAEIEAFLKEKRKELSKLVEKYEELLK
# B5: traf2_out_20_38_2006 (protein)
# chain: SEEEEEEKRLQKIIDAANEELDRWEKEIEELRAEGKSVEEIAEIAKKRIREMLTAAGLEEEAEELIAQVDTVLDSPDAERAIARILARAAALVTQKKLQE
# B6: traf2_out_11_169_788 (protein)
# chain: EEREKNRKFNDHALELEDKAKEELKKFALALAKEHGLDVEAVKAIFEENKGKSLSAIAAALIAYFTAQGDEEAAAAVLAKYEELKEKINKEGSKFLKELE
# B7: traf2_out_19_16_1989 (protein)
# chain: SKEEAEKLKKEMNKYLDEALELAKEAVENLDELSREELMDKLVEISELMRKAKELLQKYLELNKDDEEERKKVTEEFDKKYDEIMKLMTIIVKKIEELLK
# B8: traf2_out_14_149_1242 (protein)
# chain: SAEAKLYKAAAELAEEIAKALEEALKLLDAGKVEEAKKLLEETIKKLEERGKEAGISISGIFVLEHILELLDKDPEAAKAAAEEALKRAKSAAEAFKSLA
# Target: T1, TRAF2, Q12933
# Assay: median log2 fold change of GCK-ALFA target abundance (FLAG IP / Myc IP barcode read proportion) (log2 ratio); each designed protein is fused to an ALFA-tag nanobody in HEK293 cells to bring the named protein to FLAG-tagged glucokinase (GCK); Myc marks an untargeted standard; higher = target protein stabilised (more abundant)
# Conditions: target protein: 3xFLAG-MCP-GCK-ALFA reporter; HEK293 landing pad (RPLP)
# Procedure, shortened: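 HEK293 landing-pad cells received a recombined binder library fused to the ALFA nanobody and were induced with 2 μg mL^−1 doxycycline, then transfected with a plasmid encoding a FLAG-tagged target and a Myc-tagged standard. Lysates were collected after 48 h for anti-FLAG and anti-Myc immunoprecipitation, and the circular RNA barcodes were reverse transcribed, amplified and sequenced. Target abundance for each binder is the median log2 ratio of FLAG to Myc barcode read proportions. Barcodes had to reach a proportion of at least 10^−7 in both replicates, each binder needed at least 3 barcodes per replicate, a pseudocount of 10^−6 was applied, and the two replicates were pooled.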
row,Binder,median log2 fold change
1,B1,0.288
2,B2,0.244
3,B3,0.133
4,B4,-0.142
5,B5,-0.29
6,B6,0.249
7,B7,0.137
8,B8,-0.0513
